Test: Thermal stability of ADC molecules (UNcle: Tm, Tagg, DLS)
Type: physicochemical
Conditions: 1CP-152-MMAE vs CD27H10-MMAE
Description: The denaturation temperature (I'm value), aggregation temperature (Tagg value) and hydration kinetic diameter of ADC molecules were measured by UNcle multifunctional protein stability analysis system. Wherein, the Tm value was based on endogenous fluorescence spectroscopy method, and was fitted and calculated according to BCM algorithm, the Tagg value was measured by static light scattering (SLS) technology, and the hydration dynamics diameter was measured by dynamic light scattering (DLS) technology. • SEC purity detection: The purity of ADC molecules was analyzed by high performance liquid chromatography (HPLC). • Liquid chromatograph: Shimadzu LC-2030C Plus • chromatographic column: TSKgel G3000SWXL, 7.8×300 mm, 5 μm, TOSOH • mobile phase: 61 mmol/L Na2HPO4, 39 mmol/L NaH2PO4, 200 mmol/L NaCl, pH6.8 • flow rate: 1.0 ml/min • Detection wavelength: UV 220 nm • column temperature: 30° C. • Sample chamber temperature: 10° C. • Injection volume: 20 μg • Isocratic running time: 30 min

B1: 1CP-152-MMAE: humanized antibody 1CP-152 linked to vc-MMAE, target DAR 4 (conjugate)
heavy: EVQLVESGGGLVQPGRSLRLSCTTSGLTFTHYHMSWVRQAPGKGLEWVAIIRNKAYGYTTDYSASVRGRFTISRDDSKSILYLQMNSLKTEDTAVYYCVREGGYGYDGTFAYWGQGTLVTVSS[left out - human IgG1 constant region]
light: DIQMTQSPSSLSASVGDRVTITCRASESVDNYGISFMNWFQQKPGQAPKLLIYAASNQGSGVPSRFSGSGSGTDFTLTISSMQPEDFATYYCQQSKEVPRTFGGGTKVEIKRTVAAPSVFIFPPSDEQLKSGTASVVCLLNNFYPREAKVQWKVDNALQSGNSQESVTEQDSKDSTYSLSSTLTLSKADYEKHKVYACEVTHQGLSSPVTKSFNRGEC
In the case of B1, the “difference in Tagg values between the two” value is reported as 4 °C.
